# Assay results from publication PMC12040169 (PLOS Biology, 2025).
# This is one part of the list.
# Test system: T1, C. trachomatis L2/434/Bu expressing GFP (CTL2-GFP)
# T1 construct: L2/434/Bu GFP intracellular growth in HeLa cells
# Set-up: species or system HeLa; C. trachomatis total inclusion area by high-content imaging, normalised to DMSO
# Details: total inclusion area; 28.5 h, 10 µM; inhibitor
# Method in brief: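 After bulk GFP and resorufin fluorescence reads, cells were fixed, stained with Hoechst and imaged by high-content microscopy. Inclusion area and number (GFP) stood in for chlamydial growth, nuclei count (Hoechst) for host cell viability. MICs were derived as for the bulk readout.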
row,SMILES,% of control remaining
1,N#Cc1ccccc1COC(=O)c1cc(-c2ccc(/C=C/c3nc(O)c([N+](=O)[O-])c(=O)[nH]3)o2)ccc1Cl [CBK269115],78.3716
2,Cc1ccc(SC(C)C(=O)O/N=C(\N)c2ccccn2)cc1 (centres unmarked) [CBK268567],80.4445
3,Cc1cc(C)nc(-n2ncc(C#N)c2N)n1 [CBK270227],122.445
4,OC[C@H]1CCCN1c1nc(Br)cn2ccnc12 [CBK085496],111.729
5,COC(=O)c1cscc1NC(=O)c1cnc(-c2ccc(Cl)cc2)c(-c2ccco2)c1 [CBK036657],112.373
6,COCCNc1nc2c(c(N3CCCC(C#N)C3)n1)CCNCC2 (centres unmarked) [CBK307412],86.3156
7,O/N=C1\CSCc2ncccc21 [CBK007234],46.8065
8,CSc1nnc(NS(=O)(=O)c2ccccc2C)s1 [CBK144918],88.4092
9,Cc1csc2nc(CN3CCN(C(=O)c4ccccc4)CC3)cc(=O)n12 [CBK305019],89.2224
10,O=C(NC1CCCC1)c1ccc2c(=O)[nH]cnc2c1 [CBK287990],125.696
11,CC(=O)c1sc(NC(=O)c2ccccc2Oc2ccccc2)nc1C [CBK287314],94.2626
12,C[C@H](Cn1nc2c(cc1=O)CCCCC2)NC(=O)Cc1cccs1 [CBK284548],53.9214
13,O=C(C(CO)c1ccccc1)N1CCC2(CCN(CCCCOc3ccccc3)C2)C1 (centres unmarked) [CBK161722],89.5733
14,Cc1nc2cc(C(=O)N3CCC(c4ccncc4)CC3)ccc2s1 [CBK283513],60.6652
15,O=C(CN1CCN(CCCc2c[nH]c3ccc(F)cc23)CC1)N(c1ccccc1)C1CCCCC1 [CBK074710],75.8622
16,O=C(NC[C@H]1O[C@@H](CC(=O)N2CCN(c3ccc(F)cc3)CC2)[C@H](O)[C@@H]1O)C1CC1 [CBK288921],103.77
17,O=c1[nH]c(=O)n([C@H]2C[C@@H](O)[C@@H](CO)O2)cc1CO [CBK201332],100.438
18,Cc1n[nH]c(C)c1CCCCCOc1ccccc1F [CBK025736C],62.1908
19,Cc1ccc(OCC(=O)N2CCN(S(=O)(=O)c3ccc([N+](=O)[O-])cc3)CC2)cc1 [CBK264267],96.9926
20,O=c1cc(C(F)(F)F)c2ccc(OCc3ccc(Cl)cc3)cc2o1 [CBK058200],85.7208
21,COc1cc(C)c(Nc2cc(-c3ccc(C(N)=O)cc3)ncn2)cc1OC [CBK090784],94.3616
22,Cc1nccn1CCCn1cncc1-c1ccc2c(c1)CC(C)N2C (centres unmarked) [CBK281818],87.4098
23,C#CCNC(=O)C1CCN(c2nc3ccccc3n2CC=C)CC1 [CBK283925],71.8878
24,O=c1cc(CN2CCC(Cc3ccccc3)CC2)[nH]c(=O)[nH]1 [CBK126388],104.623
25,Cn1c2c(c(=O)n(C)c1=O)[C@H]1[C@H](O)[C@H](O)C[C@H]1[C@@H](C(O)c1ccccc1)N2 (some centres unmarked) [CBK303236],69.0001

row,SMILES,% of control remaining
1,O=C(CCc1ccccc1)N1CCCC1c1cccc(Cc2ccccc2F)n1 (centres unmarked) [CBK286208],86.5052
2,Nc1cccc(Sc2ncccn2)c1 [CBK085844],92.0101
3,Oc1cccc(-c2nccnc2NCc2cccc(C(F)(F)F)c2)c1 [CBK037014],84.8907
4,O=C(O)C1CCN(C(=O)NCCOc2ccccc2)CC1 [CBK156072],101.111
5,COc1ccc(/C=C(/C(=O)NCc2ccc(Cl)cc2Cl)c2ccccc2)cc1 [CBK265256],100.94
6,CCn1c(CN2CCC(c3cc(O)nc(N)n3)C2)nc2c(F)cccc21 (centres unmarked) [CBK304189],79.7841
7,Cc1nc(NS(=O)(=O)Cc2ccccc2[N+](=O)[O-])sc1C(=O)O [CBK045564],115.14
8,CS(=O)(=O)c1ccc(-c2cnc3[nH]c(=O)n(-c4ccc5[nH]ccc5c4)c3n2)cc1 [CBK064691],110.754
9,Cc1ccccc1C1(O)CCN(CC(O)c2ccc3c(c2)OCCCO3)CC1 (centres unmarked) [CBK286332],97.262
10,O=C(Nc1ccc(N2CCCCC2)c2ccncc12)c1cccc(-n2cnnn2)c1 [CBK297754],104.517
11,O=C(O)c1cn(CCN2C(=O)c3ccccc3C2=O)nn1 [CBK286543],86.469
12,O=C(O)CCCC(=O)N1N=C(c2cccs2)CC1c1cn(-c2ccccc2)nc1-c1ccccc1 (centres unmarked) [CBK296124],137.54
13,Cc1csc(NC(=O)c2ncoc2-c2cccs2)n1 [CBK283972],107.688
14,CCN(CC)C(=O)C1CCCN(C(=O)NCc2cc(OC)c(OC)c(OC)c2)C1 (centres unmarked) [CBK156130],86.9815
15,COCCN1C(=O)C2(CC(=O)N(CCCN3C(=O)CCC3=O)C2=O)c2ccccc21 (centres unmarked) [CBK075333],92.9888
16,O=C(CN1C(=O)S/C(=C\c2ccc(OCc3ccccc3F)cc2)C1=O)c1ccc(Cl)cc1 [CBK264632],97.2246
17,COc1ccc(CN2CCC(C(=O)NC(c3ccc(OC)nc3)c3ccccc3C)CC2)cc1 (centres unmarked) [CBK081445T],81.5612
18,CCNC(=O)N1CC2(CCN(CC(N)=O)CC2)c2ccccc21 [CBK126701],120.994
19,Cc1ccc(-n2cc(CN(C)CC3(C)COC3)cn2)cc1 [CBK281720],103.44
20,CC(C)(C)c1ccc(NC(=O)N2CCCN(Cc3ccccc3)CC2)cc1 [CBK085876],36.1413
21,Cc1cc(C)n(-c2nc3ccccc3nc2N2CCN(S(=O)(=O)c3ccccc3)CC2)n1 [CBK269399],114.505
22,Cc1ccc2cc(S(=O)(=O)NCCC(=O)O)ccc2c1 [CBK267569],95.8529
23,O=C(C1CCCCC1)N1CC(n2nc(-c3cccs3)ccc2=O)C1 [CBK283346],77.7068
24,COc1ccc(CNc2nc(-c3ccc(C)cc3)nn2C(=O)c2cccc([N+](=O)[O-])c2)cc1 [CBK268546],72.259
25,O=C(CCS(=O)(=O)Cc1ccccc1)n1nnc2ccccc21 [CBK268324],84.897
